# Reference: paper PMC9911399, “Two distinct binding modes provide the RNA-binding protein RbFox with extraordinary sequence specificity”
# Numbering of substitutions follows the chain as printed; changes in the protein carry UniProt numbers. This is one part of the list.
# T1: RBFOX1 RRM (Homo sapiens, UniProt Q9NWB1 109-208)
# T1 sequence: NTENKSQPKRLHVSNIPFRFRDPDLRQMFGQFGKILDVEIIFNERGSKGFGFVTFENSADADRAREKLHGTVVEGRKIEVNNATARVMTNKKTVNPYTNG
# B1: AGAUCUU (DNA:RNA)
# RNA: GGGAGACCGGAAUUCAGAUUGUCCAGAUCUUUUAAAUCCCGUCGUAGCCACCA
# DNA 1: CAATCTGAATTCCGGTCTCCC
# DNA 2: TGGTGGCTACGACGGGATT
# B2: CCGAGAU (DNA:RNA)
# RNA: B1 RNA with A25C, G26C, A27G, U28A, C29G, U30A
# DNA 1: CAATCTGAATTCCGGTCTCCC
# DNA 2: TGGTGGCTACGACGGGATT
# B3: CCCGGGC (DNA:RNA)
# RNA: GGGAGACCGGAAUUCAGAUUGUCCCCCGGGCUUAAAUCCCGUCGUAGCCACCA
# DNA 1: CAATCTGAATTCCGGTCTCCC
# DNA 2: TGGTGGCTACGACGGGATT
# B4: UCCAGCU (DNA:RNA)
# RNA: B3 RNA with C25U, G28A, G30C, C31U
# DNA 1: CAATCTGAATTCCGGTCTCCC
# DNA 2: TGGTGGCTACGACGGGATT
# B5: AGGCGAU (DNA:RNA)
# RNA: B1 RNA with A27G, U28C, C29G, U30A
# DNA 1: CAATCTGAATTCCGGTCTCCC
# DNA 2: TGGTGGCTACGACGGGATT
# B6: GUAGCCG (DNA:RNA)
# RNA: B1 RNA with A25G, G26U, U28G, U30C, U31G
# DNA 1: CAATCTGAATTCCGGTCTCCC
# DNA 2: TGGTGGCTACGACGGGATT
# B7: UUUGCUG (DNA:RNA)
# RNA: B1 RNA with A25U, G26U, A27U, U28G, U31G
# DNA 1: CAATCTGAATTCCGGTCTCCC
# DNA 2: TGGTGGCTACGACGGGATT
# B8: GUCCACU (DNA:RNA)
# RNA: B1 RNA with A25G, G26U, A27C, U28C, C29A, U30C
# DNA 1: CAATCTGAATTCCGGTCTCCC
# DNA 2: TGGTGGCTACGACGGGATT
# B9: UGCGGGU (DNA:RNA)
# RNA: B3 RNA with C25U, C26G, C31U
# DNA 1: CAATCTGAATTCCGGTCTCCC
# DNA 2: TGGTGGCTACGACGGGATT
# B10: CAAUAAU (DNA:RNA)
# RNA: B1 RNA with A25C, G26A, C29A, U30A
# DNA 1: CAATCTGAATTCCGGTCTCCC
# DNA 2: TGGTGGCTACGACGGGATT
# B11: ACCUUCU (DNA:RNA)
# RNA: B1 RNA with G26C, A27C, C29U, U30C
# DNA 1: CAATCTGAATTCCGGTCTCCC
# DNA 2: TGGTGGCTACGACGGGATT
# B12: CGUGUGA (DNA:RNA)
# RNA: B3 RNA with C26G, C27U, G29U, C31A
# DNA 1: CAATCTGAATTCCGGTCTCCC
# DNA 2: TGGTGGCTACGACGGGATT
# B13: GUGAUGA (DNA:RNA)
# RNA: B3 RNA with C25G, C26U, C27G, G28A, G29U, C31A
# DNA 1: CAATCTGAATTCCGGTCTCCC
# DNA 2: TGGTGGCTACGACGGGATT
# B14: GGACAAC (DNA:RNA)
# RNA: B1 RNA with A25G, U28C, C29A, U30A, U31C
# DNA 1: CAATCTGAATTCCGGTCTCCC
# DNA 2: TGGTGGCTACGACGGGATT
# B15: CUACCAG (DNA:RNA)
# RNA: B1 RNA with A25C, G26U, U28C, U30A, U31G
# DNA 1: CAATCTGAATTCCGGTCTCCC
# DNA 2: TGGTGGCTACGACGGGATT
# B16: UUUAAGC (DNA:RNA)
# RNA: B3 RNA with C25U, C26U, C27U, G28A, G29A
# DNA 1: CAATCTGAATTCCGGTCTCCC
# DNA 2: TGGTGGCTACGACGGGATT
# B17: CUGUGGC (DNA:RNA)
# RNA: B3 RNA with C26U, C27G, G28U
# DNA 1: CAATCTGAATTCCGGTCTCCC
# DNA 2: TGGTGGCTACGACGGGATT
# B18: CGUUAAU (DNA:RNA)
# RNA: B1 RNA with A25C, A27U, C29A, U30A
# DNA 1: CAATCTGAATTCCGGTCTCCC
# DNA 2: TGGTGGCTACGACGGGATT
# B19: GUGAUGG (DNA:RNA)
# RNA: B3 RNA with C25G, C26U, C27G, G28A, G29U, C31G
# DNA 1: CAATCTGAATTCCGGTCTCCC
# DNA 2: TGGTGGCTACGACGGGATT
# B20: CUGAUGC (DNA:RNA)
# RNA: B3 RNA with C26U, C27G, G28A, G29U
# DNA 1: CAATCTGAATTCCGGTCTCCC
# DNA 2: TGGTGGCTACGACGGGATT
# Target: T1, RBFOX1 RRM
# Assay: EMSA; HiTS-Eq, 1 nM pool, 10 min; buffer printed only for the single-RNA assays: 10 mM Tris pH 7.5, 150 mM NaCl, 3.4 mM EDTA, 0.001% NP-40, 30 C
# Details: tags: His6 N-terminal (pET28a); label: 5' 32P
# Summary of the method: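 These values rest on relative association constants, computed from read-count changes of each RNA species versus the control reaction and normalised to the cognate motif. Reads came from free RNA recovered by 8% native PAGE after purified RbFox RRM (wild type or mutant) at increasing concentrations was equilibrated for 10 min in 50 µL with 1 nM of a 5′-radiolabelled pool with 7 randomized nucleotides and DNA-annealed flanks.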
row,Binder,binding signal
1,B1,0.00887 KA relative to UGCAUGU
2,B2,0.00976 KA relative to UGCAUGU
3,B3,0.00898 KA relative to UGCAUGU
4,B4,0.00536 KA relative to UGCAUGU
5,B5,0.00907 KA relative to UGCAUGU
6,B6,0.0117 KA relative to UGCAUGU
7,B7,0.0217 KA relative to UGCAUGU
8,B8,0.00579 KA relative to UGCAUGU
9,B9,0.00917 KA relative to UGCAUGU
10,B10,0.00148 KA relative to UGCAUGU
11,B11,0.00415 KA relative to UGCAUGU
12,B12,0.0175 KA relative to UGCAUGU
13,B13,0.016 KA relative to UGCAUGU
14,B14,0.0157 KA relative to UGCAUGU
15,B15,0.00668 KA relative to UGCAUGU
16,B16,0.0109 KA relative to UGCAUGU
17,B17,0.0106 KA relative to UGCAUGU
18,B18,0.00397 KA relative to UGCAUGU
19,B19,0.0149 KA relative to UGCAUGU
20,B20,0.012 KA relative to UGCAUGU
